# According to ChEMBL document CHEMBL4888484, “Replenishing the malaria drug discovery pipeline: Screening and hit evaluation of the MMV Hit Generation Library 1 (HGL1) against asexual blood stage Plasmodium falciparum ,using a nano luciferase reporter read-out” (2022):
# Among all 150,000 compounds or so, about 540 (0.36%) showed an effect of 50% or more. This is one part of the list.
# System: Plasmodium falciparum
# Experiment: Primary screen in NF54 nanoGlo assay, in single point, at 2uM, 72h; a lower Z score goes with more inhibition
# Format: functional, Erythrocyte
# Conditions: timepoint 72 hour
SMILES,% Inhibition [%],Z score
O=C(c1cccnc1)N1C[C@H]2CC[C@@H](C1)N(C(=O)c1cc3ccccc3[nH]1)C2,-8,1.61
Cc1ccc(-c2nc3ccc(C)cn3c2NC(=O)C2C[C@H]2c2ccccc2)cc1 (stereo not given in full),-5,0.73
Cc1[nH]nc(CNCCCc2ccccc2F)c1Cl,1,-0.27
Cc1cccc2c1O[C@H](C(=O)N(C)Cc1c(C)nc3sccn13)C2,-13,1.32
Cc1ccc(CNC(=O)Nc2cccc3ncccc23)cc1,-8,1.15
O=C(NCCn1ccnc1)c1ccco1,-7,1.08
CCCn1c(=O)[nH]c2c(C(=O)N3CCN(c4ccccc4F)CC3)snc2c1=O,-11,1.83
O=C(NCc1ccc(-n2cncn2)nc1)c1ccc2c(c1)CCCC2,1,-0.18
N#Cc1ccc(N2CCCC(NC(=O)C3CCCOC3)C2)c(F)c1 (stereo not given),-4,0.83
COC(=O)N[C@H](C(=O)Nc1ccnnc1)C(C)C,-2,0.35
CC=CCS(=O)(=O)CC(=O)N(C)CC1CCCCC1,-11,1.65
C#C[C@H](C)NC(=O)Nc1cccn(CC(F)(F)F)c1=O,-14,2.58
CCc1csc(CNCc2c[nH]cn2)n1,-16,1.95
CO[C@@H](CNC(=O)c1ccoc1)c1cc2ccccc2o1,-4,0.65
Cc1cc(C)n(Cc2nc(Cc3ccccc3)no2)n1,-10,0.91
CN(CC(=O)NC1CCCCCCC1)S(=O)(=O)c1ccccc1,-5,0.74
O=C(Nc1nc(-c2ccccc2)cc(-c2ccccc2)n1)c1ccccc1F,-15,2.77
Cc1nc(C)c(CC(=O)Nc2nc3ccccc3s2)s1,-12,1.99
Cc1ccc(CN2c3ccc(F)cc3OC[C@@H]2CC(=O)NCc2ccco2)cc1,-5,0.97
Cc1nnc([C@H](C)NS(=O)(=O)c2ccc3c(c2)OCCCO3)o1,-7,1
CCN1CCCC[C@@H]1CNCc1cnc(C)nc1,-7,0.77
CC(C)Cc1nsc(N2CCN(C)[C@]3(CCOC3)C2)n1,3,-0.42

SMILES,% Inhibition [%],Z score
COc1ccc(CN2C(=O)N[C@@H](CC(=O)Nc3ccc4c(c3)OCO4)C2=O)cc1,-3,0.39
Cc1ccc2ncccc2c1CN(C)CCCN(C)C,-5,0.95
O=C(c1ccc2nccnc2c1)N1CCC2(CCO2)CC1,1,-0.18
OC1(Cc2cc(-c3ccccc3)no2)CCN(CC2CCCC2)CC1,-2,0.33
Cc1c(O)cccc1C(=O)NCC1(c2ccccn2)CC1,-15,2.9
CC1(C)[C@@H](NC(=O)Nc2cnn(CC(=O)N3CCOCC3)c2)[C@@H]1c1ccccc1,17,-1.99
Cc1nnc2sc(-c3cnn(-c4ccccn4)c3C(F)(F)F)nn12,35,-4.46
Cc1n[nH]nc1C(=O)Nc1nc(C)c(Cc2ccccc2Cl)s1,-12,1.64
Cc1occc1CN[C@@H]1CCOc2c(F)cccc21,-10,1.89
C#CCOC[C@@H](O)CN(CCC)Cc1c(-c2ccccc2)nn(C)c1Oc1ccc(F)cc1,-17,2.14
COc1ccc(C2=NN(C(=O)CN(CCN3CCOCC3)C(=O)C3CCC3)[C@H](c3ccc(OC)cc3)C2)cc1,-2,0.25
Cc1cccc(NCCc2ncc(C)s2)n1,-3,0.42
Cc1ccccc1-c1cc2n(C)c(C)c(CCC(=O)NCc3ccc4c(c3)OCO4)c(=O)n2n1,-10,1.31
CCCN1C(=O)CN(S(=O)(=O)c2ccc(OC)cc2)C[C@@]1(C)C(=O)NCc1ccc(F)cc1,-12,1.46
COc1cc(N[C@H]2CCCN(Cc3cncn3C)C2)cc(OC)c1,-4,0.5
Cc1nc2c(NCC3(N4CCOCC4)CCCCCC3)ncnc2o1,-12,2.45
CN1C(=O)[C@]2(CCN(C(=O)C3CCCC3)C2)c2ccccc21,-9,1.14
C[C@@H](CNc1ncc(Cl)cn1)c1nncn1C,8,-1.16
COCC(=O)NC1CN(S(=O)(=O)c2cc(F)cc(F)c2)C1,-2,0.4
c1ccc2c(c1)OC[C@@H](c1noc(Cc3cc(C4CC4)no3)n1)O2,-6,1.24
O=C(NCc1ccco1)N1CCN(c2nc3cc(F)ccc3n3cccc23)CC1,8,-1.29
CCC1CN(S(=O)(=O)CCC(C)(C)S(C)(=O)=O)C1,-9,0.9

SMILES,% Inhibition [%],Z score
CNC(=O)COc1cccc(CC(=O)NCc2ccnc(-n3ccnc3)c2)c1,17,-2.2
O=C(Nc1ccncc1)N1CC=CC12CCCCC2,0,0.01
O=C(C[C@H]1CCCOC1)NCCCn1ccnn1,4,-0.5
Cc1cccc2c(=O)n(CCC(=O)Nc3ccc(NC(=O)c4ccco4)cc3)cnc12,-11,2.1
CCN(CCN1CCOCC1)C(=O)c1cnn[nH]1,4,-0.7
COc1ccc(CNC(=O)CCc2ccc3nc(NC(C)=O)sc3c2)c(OC)c1,-15,1.51
CNC(=O)c1sc2ccc(NC(=O)c3cnccn3)cc2c1OC,-9,1.09
CCC(=O)Nc1ccc(C)cc1-c1nc2ccccc2n(CC(=O)Nc2ccccc2C)c1=O,-4,0.65
CS(=O)(=O)c1ccc(OC[C@H]2C[C@@H](NC(=O)Nc3ccccc3)[C@H](O)[C@@H]2O)cc1,-14,1.78
O=C1[C@@H]2C[C@@H](CN2Cc2ccc3c(c2)OCCO3)N1c1ccccc1Cl,7,-0.99
Cc1cc(C(=O)NCCNC(=O)c2cc(C)oc2-c2ccccc2)c(-c2ccccc2)o1,-8,0.98
Cc1ccc2nccc(N(C)Cc3nc(-c4ccccn4)no3)c2c1,-15,2.77
Cc1c(C(=O)NCc2cccs2)cnn1[C@H]1CCS(=O)(=O)C1,-4,0.63
O=C(CN1CCCCCC1)N1CCC2(CC1)CC(=O)N(Cc1ccccc1)C2,-2,0.25
COc1ccc(OC)c(CNC(=O)CCc2nc(N3CCCCC3)c3c(C)noc3n2)c1,-8,1.31
CC(C)(COc1ncc(Cl)cc1Cl)NC(=O)CC#N,-8,1.23
O=C(Nc1cn[nH]c1)C(=O)Nc1ccc(F)c(F)c1F,34,-4.62
CN1CCc2ccc(S(=O)(=O)NCCN3CCc4ccccc4C3)cc21,-9,1.28
COc1ccc2c(c1)C(NC(=O)[C@H]1CCCO1)CCN2C(=O)[C@H]1CCCO1 (stereo not given in full),-6,0.82
COc1c[nH]c(COCC2CCCCCC2)cc1=O,13,-1.66
CN(Cc1ccccc1)C(=O)c1nn(-c2ccc(Cl)cc2)c(=O)n(Cc2cccc(F)c2)c1=O,-8,1.02
Cc1[nH]c2c(-c3cccc4ccccc34)cnn2c(=O)c1Cl,-17,2.17

SMILES,% Inhibition [%],Z score
Cn1cc(-c2csc(Nc3ccc(C#N)cc3)n2)cn1,3,-0.44
CCS(=O)(=O)C[C@H](C)N(C)C(=O)CCc1ccccc1,-4,0.8
O=C(CCNc1ccc(-c2ccccc2)cc1)c1ccc(Br)cc1,-12,1.48
CCOC(=O)CN(C)c1ncc(CN[C@@H](C)c2ncn[nH]2)cn1,-4,0.75
Cn1ncc2cnn(CC(=O)Nc3cccc(S(=O)(=O)N4CCOCC4)c3)c2c1=O,-7,1.14
CC(C)C(=O)N[C@H](C#N)c1cccc(Br)c1,10,-1.64
Cc1nnc(-c2ccc(S(=O)(=O)N3CCCc4ccccc43)s2)o1,-8,1.55
COC[C@](C)(CCO)NCc1c(C)cccc1C,-4,0.6
Cn1cc(CN2C[C@@H]3[C@@](C(F)(F)F)(CCCS3(=O)=O)C2)cn1,-15,1.51
c1ccc(-c2noc(-c3ccc(N4CCN(C5CCCCC5)CC4)nn3)n2)cc1,7,-0.87
Cn1cc(C(=O)N2CCC[C@H]2c2ccsc2)cn1,-6,0.57
CC1(C)O[C@@H]2C[C@@](OCc3ccccc3C#N)(C(=O)NC3CC3)CC(OCc3ccc(F)c(F)c3)[C@@H]2O1 (stereo not given in full),-5,0.54
O=C(C[C@@H]1NC(=O)N(Cc2ccccc2Cl)C1=O)Nc1ccccn1,2,-0.29
O=C(c1ccsc1)N1CCc2sccc2C1,5,-0.97
N#CC1(N(C(=O)c2cc(Cl)ccc2F)C2CC2)CCC1,-12,1.17
O=C(c1ccccc1)N(CC1CCN(C2Cc3ccccc3C2)CC1)C[C@H]1CCCO1,1,-0.09
CN1C(=O)C[C@@H](C(=O)NCc2ccc3[nH]cnc3c2)c2ccccc21,3,-0.45
Cc1cccc(CC(CNC(=O)C2CCOC2)C(=O)O)c1 (stereo not given),-16,1.91
COc1ccc(-c2cc(O)n(-c3nc4ccccc4s3)n2)cc1OC,1,-0.08
